# Results from the supplement of paper PMC10338343.
# ± gives the standard deviation. In all, about 3,700 sequences were measured (“pre-steady-state target cleavage rate”: median about 0.02, highest 2% from about 0.23 on). The list shows a part of the results, in another mix than the full data.
# System: MILI (PIWIL2) piRISC loaded with Kctd7 piRNA (26 nt)
# Test: pre-steady-state target cleavage rate (min^-1); MIWI and MILI are mouse PIWI proteins and EfPiwi is from a freshwater sponge; tags in brackets are library labels; higher = faster piRNA-guided slicing of the target
# Details: guide: Kctd7 piRNA 5'p-UGUUAAUCUCUCAGAGAAGGUGACAG; auxiliary factor: 500 nM mouse GTSF1
# Procedure: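 Cleave-'n-Seq: a library of target RNAs (target site embedded in constant flanks, ACAGCATTCCGCGTTAGTGATATCCG... 5' flank; DNA-blocked outside the site) at 0.1 nM was incubated with 1 nM active mouse MILI or MIWI piRISC (synthetic 5'-monophosphorylated piRNA guide) with or without 500 nM mouse GTSF1 at 33 °C for 1 min to 16 h. Uncleaved targets were sequenced and normalised to non-target controls, and the pooled three trials were fitted to a burst-and-steady-state model to give the pre-steady-state cleavage rate (min^-1; k3 is constrained to at most 1e-4). Sequence is the target site only; target names encode pairing extent (gX:gY) and contiguous / 1-mismatch / 2-mismatch / bulge geometry. Fits with R² ≤ 0 are excluded.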
row,Sequence,pre-steady-state target cleavage rate
1,UAGUGACAGUGGAUCUCUGAGAGAUAUAACA,< 0.0001
2,UAGUCUGUCACCUUCCUGAGAGAUUAACA,0.0844 ± 0.028
3,UAGUGACUCACCAUUCUCUGAGAGAUUAACA,0.0839 ± 0.012
4,UAGUGACAGUCCUUCUCUGUGAGAUAAACA,0.00912 ± 0.0029
5,UAGUGACAGACGUUCACUGAGAGAUUAACA,0.0472 ± 0.0065
6,UAGUGACAGUGCUUCUCUGAGAGAUUAAUA,0.0297 ± 0.0083
7,UAGUGAGUCUCCUUCUCUCAGAGAUUAACA,0.0352 ± 0.0067
8,UAGUGACAGUGGUUCUCUGUCAGAUUAACA,< 0.0001
9,UAGUGACACACCUUCUAUGAGAGAUUAACA,0.0667 ± 0.017
10,UAGUGACUCACCUUCUCUGAGAGACUUAACA,0.138 ± 0.018
11,UAGUGACAGACGUUCUCAGAGAGAUUAACA,0.0148 ± 0.0047
12,UAGUCUGUCACGAUCUCUGAGAGAUUAUGA,0.0053 ± 0.004
13,UAGUGACACACCUUCUUCUGAGAGAUUAACA,0.015 ± 0.0069
14,UAGUCUGUCCCCUUCUCUGAGAGAUUAACA,0.208 ± 0.017
15,UAGUGACAGUGGAAGUCUGACACAUUAACA,< 0.0001
16,UAGUGACAGUGGAUGUCUGAGAGAUUAUCA,< 0.0001
17,UAGUGACAGUGGAAGAGAGAGAGAUUGAACA,< 0.0001
18,UAGUGAGACACCUUCUCUGACAGAUUAACA,0.0413 ± 0.0077
19,UAGUGACACAGCUUCUCUGUGAGAUUAACA,0.0271 ± 0.0057
20,UAGUGACACACCUUCUCUGAGAGAUAUUCA,0.0197 ± 0.0083
21,UAGUGUGUGACCUUCACUGAGAGAUUAACA,0.108 ± 0.013
22,UAGUGACUCACCUUGUCUGAGAGAUUAUGA,0.0194 ± 0.0092
23,UAGUGACAGUGGAAGUCUGAGAGAUCAACA,< 0.0001
24,UAGUGUGUCACCUUCUCUGUGAGAUUAUCA,0.0478 ± 0.015

row,Sequence,pre-steady-state target cleavage rate
1,UAGUCUGUCACCUUCUCUGAGAGAUUUUGA,0.0133 ± 0.0061
2,UAGUGAGUCACGAUCUCUGAGAGAUUAACA,0.161 ± 0.012
3,UAGUGACUCACCUUCUGUGAGAGAAUAACA,0.0221 ± 0.008
4,UAGUGACAGUGGUUCUUUGAGAGAUUAACA,0.00806 ± 0.0018
5,UAGUGACUCACCUUCUCUGAGAGAUUAUCA,0.198 ± 0.034
6,UAGUCUGUCACCUUCUCUGUGAGAUAAACA,0.037 ± 0.0096
7,UAGUGAGUCACCUUCUCUGAAAGAUUAACA,0.0887 ± 0.014
8,UAGUCUGACACCUUCACUGAGAGAUUAACA,0.135 ± 0.014
9,UAGUGACAGUCCUUCUCUGUGAGAUUAAGA,0.00748 ± 0.0028
10,UAGUCUGUCACGUUCUCUGAGAGAUUUACA,0.0757 ± 0.01
11,UAGUGACUCACCUUCUCUGACGAGAUUAACA,0.00371 ± 0.0031
12,UAGUGAGUGUGCUUCUCUGAGAGAUUAACA,0.0669 ± 0.0076
13,UAGUGAGUCACCUCUCUCUGAGAGAUUAACA,0.194 ± 0.017
14,UAGUGUGUCACCUUCACUGAGAGAUUAUCA,0.0765 ± 0.026
15,UAGUCUCACACCUUCUCUGAGAGAUUAACA,0.144 ± 0.0092
16,UAGUGACUGUGCUUCUCUGAGAGAUUAUGA,0.00569 ± 0.0029
17,UAGUGACAGUGGAAGACUGAGAGCAUUAACA,< 0.0001
18,UAGUGUGUCACCUUCUCUGUGAGUUUAACA,0.0386 ± 0.0085
19,UAGUGAGUCACCUUCUGAGAGAGAUUUUGA,0.011 ± 0.0064
20,UAGUGACUCACGCUUCUCUGAGAGAUUAACA,0.0763 ± 0.0094
21,UAGUGAGUCACCUUCACUGACAGAUUAACA,0.0411 ± 0.013
22,UAGUGACACACCUUCUCUAGAGAUUAACA,0.00513 ± 0.004
23,UAGUGACACACCUUCUCUCAGAGAUUAUCA,0.0338 ± 0.011
24,UAGUGUGUCACCAUCUCUGAGAGAUUAUGA,0.0243 ± 0.0082

row,Sequence,pre-steady-state target cleavage rate
1,UAGUGAGACACCUACUCUGAGAGAUUAACA,0.158 ± 0.011
2,UAGUGACAGUCCUUCCUCUGAGAGAUUAACA,0.0786 ± 0.0098
3,UAGUGACACACCUUUCUGAGAGAUUAACA,0.0339 ± 0.014
4,UAGUGACUCACCUUCACAGAGAGAUUAACA,0.035 ± 0.0049
5,UAGUCUGUCACCUUCUACUGAGAGAUUAACA,0.199 ± 0.056
6,UAGUGACAGUGGAAGACUGAGAGAUUAAUCA,< 0.0001
7,UAGUGACACUACCUUCUCUGAGAGAUUAACA,0.108 ± 0.011
8,UAGUGACACACCUACUCUGAGAGAUUAACA,0.111 ± 0.0077
9,UAGUGACAGUGCGUCUCUGAGAGAUUAACA,0.00616 ± 0.0019
10,UAGUGUGUCUCCUUCUCUGAGAGAUUAUGA,0.00861 ± 0.005
11,UAGUGACAGUGCUUCUCUGCGAGAUUAACA,0.00673 ± 0.0023
12,UAGUGACUCACCUUCUCUGUGAGAAUAACA,0.00982 ± 0.0038
13,UAGUCUGUGACCUUCUCUGUGAGAUUAACA,0.0376 ± 0.0027
14,UAGUGACUCACCUUCUCUGAGAGAAUAUCA,0.0103 ± 0.0052
15,UAGUGAGUCACGUUCUGUGAGAGAUUAACA,0.106 ± 0.0071
16,UAGUGACAGUGCUUGUCUGAGAGAUUUACA,0.00774 ± 0.0035
17,UAGUGUCUCACCUUCUCUGAGAGAUUAAGA,0.114 ± 0.033
18,UAGUGACAGUGCUUCUCUGAAAGAUUAACA,0.00938 ± 0.0031
19,UAGUGACUCACCUUAUCUGAGAGAUUAACA,0.125 ± 0.011
20,UAGUCUGUCACCUUCUCUGAGAGUUAAACA,0.328 ± 0.096
21,UAGUGUGUCACCUUGUCUGAGAGAUAAACA,0.00975 ± 0.005
22,UAGUGUGUCACCUUCUCUGAGAGUUUAUGA,0.0769 ± 0.038
23,UAGUGACACACCUUCUGUGAGUGAUUAACA,0.0105 ± 0.0042
24,UAGUGACUCUCCUUCUCUGAGAGAUUAAGA,0.0164 ± 0.0068
